This is one part of the list. The full chains were built here from the parent and the listed change. Inactive controls read about 0.05.
B1: TEV protease; numbered along this chain (parent)
chain: MGESLFKGPRDYNPISSSICHLTNESDGHTTSLYGIGFGPFIITNKHLFRRNNGTLVVQSLHGVFKVKDTTTLQQHLVDGRDMIIIRMPKDFPPFPQKLKFREPQREERICLVTTNFQTKSMSSMVSDTSCTFPSGDGIFWKHWIQTKDGQCGSPLVSTRDGFIVGIHSASNFTNTNNYFTSVPKNFMELLTNQEAQQWVSGWRLNADSVLWGGHKVFMVKPEEPFQPVKEATQL

Variants of: B1
Assay: raw area under fraction-flipped curve 0-4 h after induction (AUC4h, not background-subtracted), DNA-recorder readout of cleavage of the substrate (dimensionless); higher = more cleavage of the substrate by the protease variant
Settings: temperature: 34 °C; time window: 0-4 h after rhamnose induction
Procedure: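 In vivo DNA recorder in E. coli TOP10(DE3) ΔrhaA at 34 °C. Each TEVp single-site mutant (parent TEVp 0) is paired with a single-site variant of the 7-mer TEVs (canonical ENLYFQ|S). The substrate sits between flexible linkers in a Bxb1-sfGFP-TEVs-SsrA fusion, so cleavage stabilises Bxb1 and speeds flipping of a recombination array, read by NGS. The value is the raw area under the fraction-flipped curve over 0-4 h after rhamnose induction (AUC4h), with ≥20 reads per time point. It is not background-subtracted; inactive controls average about 0.047.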
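Note: Bxb1 expression induced with 0.2% (w/v) L-rhamnose at OD600 near 0.5, cultures sampled hourly, flipped fraction per protease–substrate barcode pair counted by paired-end Illumina sequencing.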

Row | Variant | area with substrate ENLYFCS | area with substrate ENLYFES | area with substrate ENLYFFS | area with substrate ENLYFMS | area with substrate ENLYFNS | area with substrate ENLYFPS | area with substrate ENLYFTS | area with substrate ENLYFHS | area with substrate ENLYFIS | area with substrate ENLYFDS | area with substrate ENLYFKS | area with substrate ENLYFVS | area with substrate ENLYFYS | area with substrate ENLYFGS | area with substrate ENLYFRS | area with substrate ENLYFSS | area with substrate ENLYFWS | area with substrate ENLYFLS
1 | W199A | 0.0904 | 0.0767 | 0.0707 | 0.0611 | 0.0706 | 0.0632 | 0.067 | – | – | – | – | – | – | – | – | – | – | –
2 | W199K | 0.0594 | 0.0515 | – | 0.0585 | 0.0607 | 0.0697 | 0.0559 | 0.071 | 0.0496 | – | – | – | – | – | – | – | – | –
3 | V113E | 0.0636 | 0.0608 | 0.076 | – | 0.0626 | 0.0518 | 0.0402 | – | 0.053 | 0.0682 | 0.0583 | 0.0429 | 0.0603 | – | – | – | – | –
4 | F180T | 0.0486 | – | 0.0653 | 0.0599 | 0.0351 | 0.0646 | 0.049 | 0.0554 | – | – | – | – | – | 0.05 | 0.0292 | – | – | –
5 | S18D | 0.0458 | 0.0502 | – | 0.0469 | – | – | 0.0571 | – | 0.0479 | 0.0509 | – | 0.0526 | – | – | – | 0.0323 | 0.05 | –
6 | S201M | 0.0611 | 0.0744 | 0.0659 | 0.0737 | 0.0617 | 0.0527 | – | 0.0747 | 0.0573 | 0.0844 | – | – | 0.0624 | – | 0.0608 | 0.0548 | 0.067 | –
7 | K90T | 0.0735 | 0.0665 | 0.0684 | 0.0622 | – | 0.0735 | 0.0576 | 0.0474 | 0.056 | 0.0817 | – | 0.0459 | 0.0461 | – | 0.0577 | – | 0.0568 | –
8 | E195W | 0.0602 | – | 0.0762 | – | – | 0.0559 | 0.0668 | – | 0.0461 | – | – | – | 0.0553 | 0.0544 | – | 0.0439 | – | 0.0641
9 | E195Q | 0.0654 | 0.0616 | – | – | – | 0.0633 | – | 0.0678 | 0.0583 | – | – | – | – | – | – | – | 0.0589 | –
10 | S158T | 0.108 | – | – | – | – | – | – | – | 0.0648 | – | – | – | – | – | – | 0.0574 | – | –
11 | F101P | 0.0594 | 0.0522 | 0.0623 | 0.0544 | 0.0596 | 0.0504 | 0.054 | 0.0529 | 0.0503 | – | 0.0472 | 0.0612 | – | 0.0442 | 0.0639 | 0.0504 | 0.0477 | 0.0579
12 | Q151K | 0.0668 | – | 0.0563 | 0.0444 | 0.0636 | 0.0528 | 0.0489 | 0.056 | 0.0472 | 0.0426 | – | – | 0.0534 | – | 0.0593 | 0.0575 | 0.0481 | –
13 | K221P | 0.0507 | – | 0.0622 | 0.0581 | 0.0682 | 0.0602 | – | 0.059 | 0.0574 | – | 0.0367 | 0.0548 | 0.087 | 0.0492 | 0.0742 | 0.0823 | 0.0585 | 0.062
14 | D79R | 0.0973 | 0.0664 | 0.066 | 0.0589 | 0.0615 | 0.0493 | 0.0515 | – | 0.0575 | 0.0565 | 0.0555 | – | – | – | 0.0647 | 0.0631 | 0.0625 | 0.0618
15 | G2P | 0.0762 | 0.0715 | 0.0655 | 0.0728 | 0.0697 | 0.0608 | 0.0405 | – | 0.0491 | 0.0522 | 0.0536 | 0.0202 | 0.0539 | 0.0558 | – | 0.0612 | 0.0495 | –
16 | L73M | 0.0409 | 0.0504 | – | 0.0615 | 0.0664 | 0.0604 | – | 0.0714 | 0.0467 | – | 0.067 | 0.0917 | – | – | 0.0395 | 0.0591 | 0.0467 | –

Row | Variant | area with substrate ENLYFCS | area with substrate ENLYFES | area with substrate ENLYFFS | area with substrate ENLYFMS | area with substrate ENLYFNS | area with substrate ENLYFPS | area with substrate ENLYFTS | area with substrate ENLYFHS | area with substrate ENLYFIS | area with substrate ENLYFDS | area with substrate ENLYFKS | area with substrate ENLYFVS | area with substrate ENLYFYS | area with substrate ENLYFGS | area with substrate ENLYFRS | area with substrate ENLYFSS | area with substrate ENLYFWS | area with substrate ENLYFLS
17 | F187V | 0.0644 | – | – | 0.0326 | – | 0.0579 | 0.068 | 0.0642 | – | 0.041 | – | – | – | – | 0.0501 | 0.041 | – | –
18 | S130T | 0.0601 | 0.06 | – | – | – | 0.0656 | – | – | – | – | – | – | 0.0866 | – | – | – | 0.0677 | –
19 | S209T | 0.0657 | 0.0802 | – | – | – | 0.0607 | 0.0633 | – | 0.0541 | – | – | – | 0.057 | – | – | – | 0.0447 | –
20 | V165Q | 0.0469 | 0.0494 | – | 0.0592 | – | 0.0585 | 0.0575 | 0.0368 | 0.0624 | – | 0.0527 | – | – | – | 0.0518 | 0.0734 | – | 0.0448
21 | F38S | 0.0618 | 0.0608 | 0.0626 | 0.0612 | – | 0.0573 | 0.043 | 0.056 | 0.0466 | 0.0396 | – | – | 0.0563 | – | 0.0474 | 0.0547 | 0.0402 | –
22 | E189Q | 0.0633 | – | 0.0678 | 0.0731 | – | 0.061 | 0.0661 | 0.065 | 0.0542 | 0.0064 | 0.0588 | – | – | 0.0594 | 0.0647 | 0.0991 | 0.0865 | –
23 | P9T | 0.0572 | 0.0633 | – | – | – | 0.0822 | – | – | – | 0.0589 | – | – | – | – | – | – | – | –
24 | F117T | 0.0938 | – | 0.0795 | 0.0646 | – | 0.0532 | – | – | 0.0737 | 0.0554 | – | 0.0514 | – | – | 0.102 | 0.0273 | – | –
25 | I145A | 0.0584 | 0.0625 | 0.0828 | 0.0887 | – | 0.0773 | 0.0581 | – | 0.0499 | – | 0.0674 | – | – | – | 0.0616 | – | – | 0.0487
26 | V220K | 0.0549 | 0.0607 | 0.08 | 0.0663 | – | 0.0587 | 0.0657 | 0.0679 | 0.0506 | 0.0544 | 0.0641 | 0.049 | – | – | – | – | – | 0.0717
27 | D137M | 0.073 | 0.0693 | – | 0.0752 | 0.0662 | 0.0649 | 0.0517 | 0.0423 | 0.0501 | 0.0284 | 0.0586 | – | – | 0.045 | – | – | 0.0671 | 0.0519
28 | G153H | 0.0242 | 0.0434 | 0.0567 | 0.0303 | 0.0503 | 0.0454 | 0.0419 | 0.0548 | 0.0394 | 0.055 | 0.0661 | – | 0.0615 | 0.051 | – | 0.0433 | 0.0479 | 0.0512
29 | P134M | 0.0513 | 0.0757 | 0.0756 | – | – | 0.0482 | 0.063 | 0.0554 | 0.0614 | 0.0484 | – | – | – | 0.0629 | 0.0507 | – | 0.0613 | –
30 | F133S | 0.0579 | 0.0623 | 0.0731 | 0.0573 | 0.0644 | 0.0641 | 0.0795 | – | 0.0633 | – | 0.0579 | 0.0702 | 0.0647 | 0.0691 | 0.0775 | – | 0.0568 | 0.0642
31 | S154E | 0.0505 | – | 0.0733 | 0.0593 | 0.0442 | 0.0325 | 0.0664 | – | 0.0732 | 0.0623 | 0.0554 | – | – | 0.0696 | – | – | 0.0761 | –
32 | G214H | 0.0435 | – | – | – | – | 0.0344 | – | – | – | – | – | – | – | – | – | – | 0.0571 | –
